Experimental data from PubChem BioAssay AID686979 (National Center for Advancing Translational Sciences (NCATS), 2013).
Hit rate of the full screen: of about 420,000 compounds, about 50,000 (12%) were called active. Inconclusive means that the source gave no clear call. Such entries were picked first, then a sample of the others. Calls follow the shape of the dose curve; as a rule, active = well fitted inhibition curve with a large enough effect; inconclusive = small, poorly fitted or top-dose-only effect; inactive = flat fitted curve, though single readings scatter. No potency is given beside an inconclusive call; the fits are too rough.

assay: qHTS for Inhibitors of human tyrosyl-DNA phosphodiesterase 1 (TDP1): qHTS in cells in presence of CPT; details: chicken DT40 Tdp1-/-;hTDP1 cells + 20 nM CPT, ATP luminescence, 48 h; activity change, negative = growth inhibition: at 46.2 µM (top of the series) unless noted; also: nearly all actives have a fitted effect of over 55% in size
In short: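 Chicken DT40 Tdp1-/- cells complemented with human TDP1, 400 cells/well, exposed to compounds plus 20 nM camptothecin for at least 48 h at 37 C; viability read as ATP content by CellTiter-Glo luminescence.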
% is scaled to controls: 0 for no effect and ±100 for the full control effect; potency is read from the fitted curve at half-maximal effect; tags tell the direction and shape of the fitted curve.

Structure (SMILES) | Potency | activity change, negative = growth inhibition
O=C(Nc1nccc(-c2cccs2)n1)c1cccs1 | inconclusive [inhibitor, single point] | –
O=C(c1cccc(Br)c1)N1CCN(S(=O)(=O)N2CCCCCC2)CC1 | – | inactive: -18.8%
Cc1ccc(NC2CC(=O)N(c3cccc([N+](=O)[O-])c3)C2=O)cc1 (stereo not drawn) | – | inactive: 6.72%
Cc1cc(NC(=O)Nc2nnc(N3CCCCCC3)s2)ccc1Br | inconclusive [inhibitor, single point] | –
CC12CCC3C(=CCc4cc(O)ccc43)C1CC(=NO)C2O (stereo not drawn) | – | inactive: -24%
Cc1ccn2c(=O)nc(SCC(=O)Nc3ccc4c(c3)OCCO4)nc2c1 | inconclusive [inhibitor, single point] | –
COc1ccc(OC)c(NC(=O)c2csc(Cl)c2OC)c1 | inconclusive [inhibitor, single point] | –
Cc1nc(C(=O)Nc2ccc(Cl)cc2)sc1C1(C)CC(c2cccc([N+](=O)[O-])c2)=NO1 (stereo not drawn) | inconclusive [inhibitor, partial curve] | –
COc1ccc(CNC(=O)C2CCN(S(=O)(=O)c3ccc4c(c3)NC(=O)C(C)S4)CC2)cc1 (stereo not drawn) | inconclusive [inhibitor, partial curve] | –
COc1cc2c(cc1OC)[C@@H]1CC(=O)[C@@H](CC(C)C)CN1CC2 | inconclusive [inhibitor, single point] | –
Cc1cnc(C(=O)N2CCc3c([nH]c4ccccc34)C2c2ccc(F)cc2)cn1 (stereo not drawn) | – | inactive: -25.7%
O=C(OCc1ccccc1)N1CCC2CC1c1cc(N3CCCCC3)ccc12 (stereo not drawn) | inconclusive [inhibitor, single point] | –
CCOC(=O)N1CCC(N2C(=O)c3ccc(C(=O)Nc4cccc(OC)c4)cc3C2=O)CC1 | inconclusive [inhibitor, single point] | –
Cc1ccc(NC(=O)c2oc3c(c2C)-c2[nH]ncc2CC3)c(Cl)c1 | inconclusive [inhibitor, single point] | –
CCSC1=N/C(=C\c2cccnc2)C(=O)N1c1ccccc1 | inconclusive [inhibitor, single point] | –
COc1ccccc1C(=O)C1Nc2ccccc2-c2nnc(SC)nc2O1 (stereo not drawn) | inconclusive [inhibitor, single point] | –
CSc1ccccc1C(=O)NCCOc1ccccc1C | inconclusive [inhibitor, single point] | –
COc1ccc(Oc2ccc(N/C=C3/CCCC3=O)cc2)cc1 | inconclusive [inhibitor, single point] | –
CCOc1ccc(C(=O)c2ccccc2C(=O)O)cc1OCC | – | inactive: -0.263%
CCOc1ccc(NCc2cccn2-c2nnc(N3CCC(C(=O)NCCCN4CC(C)CC(C)C4)CC3)s2)cc1 (stereo not drawn) | inconclusive [inhibitor, single point] | –
Cc1c(O)c(=O)c2ccccc2n1C | inconclusive [inhibitor, single point] | –
CC(C)C[C@@H](CN1CCC[C@@H]1CN1C(=O)C(=O)NC[C@@H]1Cc1ccccc1)N1C[C@H](Cc2ccccc2)N(CC2CCCCC2)C(=O)C1=O | inconclusive [inhibitor, single point] | –
COC(=O)[C@]1(C)N[C@H](c2ccc(-c3ccc(F)cc3)cc2)[C@@H]2C(=O)N(C)C(=O)[C@@H]21 | inconclusive [inhibitor, single point] | –

Structure (SMILES) | Potency | activity change, negative = growth inhibition
CC1CCCC(NC(=O)CCS(=O)(=O)c2ccc3c(c2)NC(=O)CS3)C1C (stereo not drawn) | inconclusive [inhibitor, single point] | –
COc1ccccc1Nc1nc(N)nc(CN(C)C2CCCCC2)n1 | inconclusive [inhibitor, single point] | –
S=c1[nH]nc(-c2cccs2)n1/N=C/c1cn(-c2ccccc2)nc1-c1ccc(Cl)cc1 | inconclusive [inhibitor, single point] | –
CC(=O)Nc1ccc(OCC(=O)NCc2ccc(C)cc2)cc1 | – | inactive: 1.79%
COc1ccc(OC)c(-c2noc(N3CCN(c4ccc(Cl)cc4)CC3)n2)c1 | inconclusive [inhibitor, single point] | –
COC(=O)c1c(SCc2ccc(C#N)cc2)nc(=O)[nH]c1C | – | inactive: -26.9%
CCS(=O)(=O)N1CCC(C(=O)Nc2cc(C)ccc2O)CC1 | – | inactive: -3.67%
N#CCCN(C(=O)c1ccc2c(=O)n3c(nc2c1)CCCCC3)c1ccccc1 | inconclusive [inhibitor, single point] | –
CN(C)Cc1c(-c2ccc(Cl)cc2)nc2ccc(Cl)cn12 | inconclusive [inhibitor, partial curve] | –
CN(CC(=O)Nc1c(Cl)cccc1Cl)C(=O)c1ccccc1Cc1ccccc1 | inconclusive [inhibitor, single point] | –
COc1ccccc1N(C)S(=O)(=O)c1ccc(C)c(C(=O)N2CCCCCC2)c1 | active: 7.31 µM | –
CSc1ccccc1NC(=O)CN(Cc1ccccc1)S(C)(=O)=O | – | inactive: 3.08%
CC(C)c1ccc(NS(=O)(=O)c2cc(Br)cc3c2N(C(=O)C2CC2)CC3)cc1 | active: 8.2 µM | –
CC(C)CC(=O)NC(=S)Nc1cc(C(F)(F)F)ccc1N1CCOCC1 | inconclusive [inhibitor, single point] | –
Cc1ccc(C(O)c2ncc(-c3cccc4ccccc34)[nH]2)cc1F (stereo not drawn) | – | inconclusive: -32.6% [inhibitor]
O=S(=O)(c1ccc(Oc2ccc(S(=O)(=O)N3CCOCC3)cc2)cc1)N1CCOCC1 | inconclusive [inhibitor, single point] | –
C=CCN(C(=O)c1csnn1)C(C(=O)NC1CCCCC1)c1ccc(Cl)cc1 (stereo not drawn) | inconclusive [inhibitor, single point] | –
CC(C)NC(=O)COc1ccc(Cl)cc1Cl | inconclusive [inhibitor, single point] | –
Cc1ccc2[nH]c(=O)c(CN(CCCN(C)C)C(=O)Nc3cccc(Cl)c3)cc2c1 | active: 20.6 µM | –
Cc1cc(C)cc(NS(=O)(=O)c2ccc3[nH]cc(C(=O)NCCc4ccccc4)c(=O)c3c2)c1 | inconclusive [inhibitor, single point] | –
Cc1ccc(C(=O)N2CCn3c4c(c5cc(C)ccc53)CCCC42)cc1 (stereo not drawn) | inconclusive [inhibitor, single point] | –
COc1ccc(-c2c(C)nn3c(N4CCCCCC4)cc(C)nc23)cc1OC | active: 23.1 µM | –
C=CCC(COCc1ccccc1)NS(=O)(=O)c1ccccc1Br (stereo not drawn) | inconclusive [inhibitor, single point] | –

Structure (SMILES) | Potency | activity change, negative = growth inhibition
CCOc1ccc(NC(=O)C(=O)NCCc2csc(-c3ccc(C(F)(F)F)cc3)n2)cc1 | – | inactive: 3.08%
CCCCNC(=O)CCC(=O)Nc1ccc2nc(N3CCCCC3)cc(C)c2c1 | inconclusive [inhibitor, single point] | –
COc1ccc(CCC(=O)N2CCN(S(=O)(=O)c3cccc(C(F)(F)F)c3)CC2)cc1OC | inconclusive [inhibitor, single point] | –
O=C(NCCc1c[nH]c2ccccc12)c1cnc2n(c1=O)CCS2 | – | inactive: -9.54%
CSc1cccc(NC(=O)CN(Cc2ccc(Cl)cc2)S(C)(=O)=O)c1 | – | inactive: -27.4%
COCc1nnc(NC(=O)c2ccc(OC)cc2OC)s1 | – | inactive: 1.53%
CCc1c(C)sc(NC(=O)c2ccco2)c1C#N | – | inactive: -7.34%
CC(C)C(=O)Nc1cccc(C(=O)Nc2cc([N+](=O)[O-])ccc2F)c1 | inconclusive [inhibitor, single point] | –
O=C(CCC1CCCC1)Nc1cc(C(F)(F)F)ccc1N1CCOCC1 | inconclusive [inhibitor, partial curve] | –
CCc1ccccc1NS(=O)(=O)c1ccc2c(c1)CCCN2C(=O)C1CCC1 | inconclusive [inhibitor, single point] | –
COc1ccc(NC(=O)c2cc(-c3ccccc3Cl)on2)cc1 | – | inactive: -2.58%
CC(C)NC(=O)c1ccc2c(c1)N(Cc1cccc(Cl)c1)C(=O)c1ccccc1S2=O (stereo not drawn) | active: 20.6 µM | –
CCOC(=O)c1cc2ccccc2n1CC(=O)c1ccccc1 | inconclusive [inhibitor, single point] | –
CSc1ccccc1OCc1cc(C(=O)N2CCN(Cc3nccn3C)CC2)no1 | inconclusive [inhibitor, single point] | –
O=C1NCCCC1C(=O)N/N=C/c1cccc(Cl)c1 (stereo not drawn) | – | inactive: 31%
O=C(Nc1cccnc1Cl)c1cc([N+](=O)[O-])ccc1Cl | inconclusive [inhibitor, single point] | –
COC(=O)c1sc2c(c1C)c(=O)n(-c1ccccc1)c(=O)n2CC(=O)Nc1cccc(C)c1 | inconclusive [inhibitor, single point] | –
O=C(c1cc(C(F)(F)F)cc(C(F)(F)F)c1)N1CCC2(CCN(Cc3ccncc3)CC2)CC1 | inconclusive [inhibitor, partial curve] | –
O=[N+]([O-])c1ccc(OCC(O)CN(C2CCCCC2)C2CCCCC2)cc1 (stereo not drawn) | inconclusive [inhibitor, single point] | –
Cc1cc(C)c(S(=O)(=O)N2CCCOC2CNC(=O)C(=O)NCCc2c[nH]c3ccccc23)c(C)c1 (stereo not drawn) | inconclusive [inhibitor, single point] | –
CC1(C)CC(=O)c2sc(NC(=O)C(C)(C)C)nc2C1 | inconclusive [inhibitor, single point] | –
Cn1c(NCc2ccccc2F)nc2cc(-c3ccccc3)sc2c1=O | active: 18.4 µM | –
